{"source": "patent US20070073039A1", "about": "“Peptides that inhibit viral infections” (priority 2005, published 2007)", "key": {"[1]": {"system": "HCV", "assay": "HCV focus reduction assay", "format": "cell-based, Hepatitis C virus (JFH-1)", "description": "To identify peptides that display antiviral activity against HCV infection, the peptide library was screened by an HCV focus reduction assay. The peptides were constituted in 100% DMSO at a final concentration 10 mg/mL, and stored in −20° C. The peptide stock solution was diluted 1:200 to a final concentration approximately 20 μM in complete DMEM growth medium containing 50 focus forming units (ffu) of HCV. The virus-peptide mixture was transferred to Huh-7.5.1 cells at a density of 8000 cells per well in a 96-well plate. After adsorption for 4 hours at 37° C., the inoculum was removed. The cells were washed 2 times, overlaid with 120 μL fresh growth medium and incubated at 37° C. After 3 days of culture, the cells were fixed with paraformaldehyde and immunostained with antibody against HCV nonstructural protein NS5A. The numbers of HCV foci were counted under fluorescent microscopy and the result is expressed as percentage (%) of mock with no peptide treatment but containing solvent 0.5% DMSO.\nTo determine whether the antiviral activity of peptide 1 is dependent on its primary amino acid sequence, four derivative peptides from peptide 1 were synthesized to a purity >95%. The four derivatives having the same composition of amino acids included (1) the reversed the sequence of peptide 1 (also called retro-peptide); (2) scrambled hydrophobic amino acids; (3) scrambled hydrophilic amino acids; and (4) a derivative in which the aspartic acid residues (D) were replaced with proline residues (P). The antiviral activity of the peptides was examined by HCV focus reduction assay at three peptide concentrations: 18 μM, 6 μM and 2 μM, as described above."}, "[2]": {"system": "HCV", "assay": "Binding/attachment/uptake of HCV RNA by Huh-7.5.1 cells", "format": "cell-based, Hepatitis C virus (JFH-1)", "conditions": "18 μM; 4 hours at 37° C.; cell-associated HCV RNA", "description": "To define the mechanism of antiviral activity of peptide #1, its ability to prevent the binding/attachment/uptake by cells of viral RNA in an infectious inoculum cells was examined. Huh-7.5.1 cells were seeded at 8000 cells per well in a 96-well plate. Sixteen hours later, the cells were incubated with HCV at MOI=0.1 in the presence or absence of peptide at a concentration of 18 μM. After adsorption for 4 hours at 37° C., the virus-peptide inoculum was removed. The cells were washed 2 times, lysed and subjected to RNA analysis. The HCV RNA transcript level was measured by real time quantitative polymerase chain reaction (RT-QPCR) assay and normalized to cellular GAPDH levels. Inhibitory activity was quantified by comparing the amount of cell-associated HCV RNA in cells exposed to the virus-peptide inocula versus the virus-DMSO control."}, "[3]": {"system": "Dengue-2", "assay": "Dengue-2 Fluorescent Foci Assay", "format": "cell-based", "conditions": "FIG. 19; 20 μM", "description": "Fluorescent Foci Assay: Vero cells were seeded for 24 h pre-infection in 96-well plates. Cells were exposed to Dengue-2 in the presence of increasing concentrations of peptide (or DMSO as control). Viruses and peptide were washed away 2 h post-infection. Supernatants were collected every 3 days post-infection and added to fresh Vero cells for fluorescent foci assay. Newly infected Vero cells were fixed with 4% formaldehyde after 3 days. Cells were then stained with Dengue Env antibodies followed by Alexa-fluor dye conjugated secondary antibodies. Foci were counted using a fluorescent microscope.\nFluorescent Foci Assay. Vero cells were seeded for 24 hours pre-infection in 96-well plates. Cells were exposed to Dengue-2 in the presence of increasing concentrations of peptide (or DMSO as control). Viruses and peptide were washed away 2 hours post-infection. Supernatants were collected every 3 days post-infection and added to fresh Vero cells for fluorescent foci assay. Newly infected Vero cells were fixed with 4% formaldehyde after 3 days. Cells were then stained with antibodies directed to the Dengue Envelop protein followed by Alexa-fluor dye conjugated secondary antibodies. Foci were counted using a fluorescent microscope."}, "[4]": {"conditions": "peptide library screen, approximately 20 μM"}}, "note": "Part of at least one peptide drawing is inferred or uncertain, most often the ends. Some compounds share one wording; it may come from a single statement. Some entries share one result that the patent states for a list of compounds. Some compounds share one range, which may span the group rather than tell each member."}
{"smiles": "CC[C@H](C)[C@H](NC(=O)[C@H](CC(=O)O)NC(=O)[C@H](CCCNC(=N)N)NC(=O)[C@H](CC(C)C)NC(=O)[C@H](Cc1c[nH]c2ccccc12)NC(=O)[C@@H](N)CO)C(=O)N[C@@H](Cc1c[nH]c2ccccc12)C(=O)N[C@@H](CC(=O)O)C(=O)N[C@@H](Cc1c[nH]c2ccccc12)C(=O)N[C@H](C(=O)N[C@@H](CS)C(=O)N[C@@H](CCC(=O)O)C(=O)N[C@H](C(=O)N[C@@H](CC(C)C)C(=O)N[C@@H](CO)C(=O)N[C@@H](CC(=O)O)C(=O)N[C@@H](Cc1ccccc1)C(=O)N[C@@H](CCCCN)C(=O)O)C(C)C)[C@@H](C)CC", "note": "[Peptide 1]", "values": [{"measurement": "Focus Reduction (72 h)", "setting": "[1]; 72 h, working concentration 18.4-27.5 μM per peptide, Mock 51", "result": 0}, {"measurement": "1/3 diluted", "setting": "[1]; HCV foci, 1/3 of final concentration (6 μM)", "result": "31 ± 2"}, {"measurement": "1/9 diluted", "setting": "[1]; HCV foci, 1/9 of final concentration (2 μM)", "result": "44 ± 8"}, {"measurement": "No dilution", "setting": "[1]; HCV foci, final concentration 17-20 μM, MOCK 53 ± 4", "result": "0 ± 0"}, {"measurement": "Inhibition of HCV infection", "setting": "[1]; cell culture model of HCV infection", "result": "strongly inhibit HCV infection"}, {"measurement": "Fold Inhibition", "setting": "[1]; inhibition of HCV infection, peptide approximately 20 μM, Huh-7.5.1 cells, 3 days", "result": 100.0, "unit": "fold"}, {"measurement": "% of Mock", "setting": "[1]; number of HCV foci as % of mock (0.5% DMSO), peptide approximately 20 μM, Huh-7.5.1 cells, 3 days", "result": 1.0, "unit": "%"}, {"measurement": "Fold inhibition of HCV infection", "setting": "[1]; [4]", "result": "more than ten-fold"}, {"measurement": "Inhibition of HCV infection", "setting": "[1]; [4]", "result": "90-100%"}, {"measurement": "Blocking of viral binding/attachment/uptake", "setting": "[2]", "result": "significantly blocks viral binding/attachment/uptake"}, {"measurement": "Inhibition of Dengue viral infection by immunofluorescence assay", "setting": "[3]", "result": "~100", "unit": "%"}]}
